Assay results taken from PubChem BioAssay AID485360 (National Center for Advancing Translational Sciences (NCATS), 2010).
Out of some 230,000 compounds screened, about 1,500 (0.65%) were called active. Inconclusive results, whose numbers are uncertain, are shown with a selection of clear calls. The call rests on the fitted dose curve; in most records, active means well fitted inhibition curve with a large enough effect; inconclusive means small, poorly fitted or top-dose-only effect; inactive means no such curve, though single readings can be large or run the other way. Potencies beside an inconclusive call are fits to weak or partial responses and may not hold up.

Target: Lethal(3)malignant brain tumor-like protein 1 (Homo sapiens) (UniProt Q9Y468)
Chain of UniProt Q9Y468 (Q9Y468 whole entry, looked up): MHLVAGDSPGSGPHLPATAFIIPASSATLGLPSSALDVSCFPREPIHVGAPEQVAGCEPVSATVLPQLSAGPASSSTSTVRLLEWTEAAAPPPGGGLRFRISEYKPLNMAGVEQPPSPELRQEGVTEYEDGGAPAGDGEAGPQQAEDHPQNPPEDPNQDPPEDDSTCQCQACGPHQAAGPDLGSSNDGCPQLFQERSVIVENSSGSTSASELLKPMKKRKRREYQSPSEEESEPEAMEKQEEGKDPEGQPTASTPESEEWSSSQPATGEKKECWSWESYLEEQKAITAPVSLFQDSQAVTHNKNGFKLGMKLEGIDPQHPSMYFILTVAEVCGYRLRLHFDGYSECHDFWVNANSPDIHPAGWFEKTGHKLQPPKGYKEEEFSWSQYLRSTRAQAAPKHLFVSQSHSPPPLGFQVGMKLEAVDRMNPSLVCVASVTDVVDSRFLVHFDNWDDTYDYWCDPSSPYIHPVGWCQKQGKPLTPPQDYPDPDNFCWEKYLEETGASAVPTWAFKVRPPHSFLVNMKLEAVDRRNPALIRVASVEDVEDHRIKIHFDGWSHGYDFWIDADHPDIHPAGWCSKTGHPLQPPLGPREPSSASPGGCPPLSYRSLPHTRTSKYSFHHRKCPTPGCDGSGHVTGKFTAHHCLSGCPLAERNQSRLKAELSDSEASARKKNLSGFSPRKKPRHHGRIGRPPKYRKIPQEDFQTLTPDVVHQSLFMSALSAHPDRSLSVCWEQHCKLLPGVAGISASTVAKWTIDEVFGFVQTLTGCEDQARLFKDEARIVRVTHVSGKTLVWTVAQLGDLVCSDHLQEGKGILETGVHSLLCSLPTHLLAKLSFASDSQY
Assay: qHTS Assay for the Inhibitors of L3MBTL1; further: nearly all actives have a fitted effect of over 60% in size
Conditions: AlphaScreen L3MBTL1–H3K9me1 peptide binding; series mostly up to 57.1 µM
In short: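 L3MBTL1 (50 nM) pre-complexed 30 min with biotinylated H3(1-15)K9me1 peptide (75 nM), then compounds added for 30 min at room temperature; AlphaScreen streptavidin donor/nickel chelate acceptor beads (10 ug/mL final) read after 30 min dark incubation.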
Potency means the concentration at half of the fitted maximal effect; tags describe the fitted curve by direction and shape.

Compound	Potency
COc1cc2c(cc1OC)C(C1C(=O)CCCC1=O)N(C(=O)CCl)CC2 (stereo unspecified)	inconclusive: 39.8 µM [inhibitor, single point]
Cc1ccc(NC(=O)c2ccc([N+](=O)[O-])o2)cc1C	inactive
O=C(O)c1cccnc1SCC(=O)N1CCCCCC1	inconclusive: 28.2 µM [inhibitor, single point]
CCOC(=O)C(C)Sc1nc2c(c(=O)[nH]c(=O)n2C)n1C/C=C(/C)Cl (stereo unspecified)	inactive
Cc1ccc(-c2nn(-c3ccccc3)cc2/C=C(\C#N)C(=O)NCc2ccccc2)cc1	inactive
CCOc1cc(/C=N/NC(=O)CSc2nnc(C)s2)ccc1OCc1ccccc1Cl	inconclusive: 6.31 µM [inhibitor, single point]
Cn1nnnc1SCC(=O)N1CCN(C(=O)c2ccco2)CC1	inconclusive: 0.316 µM [inhibitor, full curve, poor fit]
Cc1ccc(NC(=O)c2ccc(COc3ccc4c(c3)CCC4)cc2)c(C)c1	inconclusive: 0.708 µM [inhibitor, single point]
CCCOC(=O)c1ccc(NS(=O)(=O)c2cccs2)cc1	inactive
CN1/C(=C\C(=S)NC(=O)c2ccccc2Cl)C(C)(C)c2ccccc21	inconclusive: 25.1 µM [inhibitor, partial curve]
CC(NC(=O)COC(=O)c1ccc([N+](=O)[O-])s1)c1ccccc1 (stereo unspecified)	inconclusive: 25.1 µM [inhibitor, single point]
CCCCCC(=O)NNC1=NCC(Cc2cccc(Cl)c2)S1 (stereo unspecified)	inconclusive: 28.2 µM [inhibitor, partial curve]
COC(=O)c1sc(S(=O)(=O)Nc2c(C)nn(C)c2C)c(C(=O)OC)c1C	inconclusive: 5.01 µM [inhibitor, single point]
Cc1cc(Cl)ccc1OCC(=O)NCC(=O)N/N=C/c1ccco1	inactive
COc1cc(/C=C2\SC(=S)N(N(C)c3ccccc3)C2=O)ccc1O	inconclusive: 2.51 µM [inhibitor, partial curve, poor fit]
COc1ccc(N2CCC(CNC(=S)Nc3cccc(C)c3)C2)cc1 (stereo unspecified)	inconclusive: 10 µM [inhibitor, partial curve]
Cc1ccc(NC(=S)NCCc2ccccc2)c(C)c1	inconclusive: 0.794 µM [inhibitor, single point]
Cc1oc(/N=C/c2c(O)ccc3ccccc23)c(C#N)c1C	inactive
O=[N+]([O-])c1ccc(Cl)c(C2Nc3cccc4cccc(c34)N2)c1	inconclusive: 28.2 µM [inhibitor, single point]
Oc1ccccc1C1NN=C(c2ccccc2)S1 (stereo unspecified)	inactive
CCOC(=O)/C=C1\SCC(=O)N1CC(=O)c1ccc[nH]1	inconclusive: 22.4 µM [inhibitor, single point]
Cc1ccc(NC(=S)c2nc3ccccc3[nH]2)c(C)c1	inconclusive: 14.1 µM [inhibitor, partial curve]
CCn1nc(C(=O)Nc2ccccc2N2CCCC2)c2ccccc2c1=O	inconclusive: 39.8 µM [inhibitor, single point]
O=C(CNc1ccc2ccccc2c1)N/N=C/c1ccc(C(=O)O)cc1	inactive

Compound	Potency
CCNc1sc(C(=O)c2cccs2)c(N)c1-c1nc2ccccc2s1	inconclusive: 14.1 µM [inhibitor, partial curve]
C[C@H](N)c1nnc(SCC(=O)N(C)C)o1	inconclusive: 7.08 µM [inhibitor, single point]
O=C(Cn1cnc2ccccc21)Nc1cccc([N+](=O)[O-])c1	inconclusive: 0.1 µM [inhibitor, full curve, poor fit]
COc1ccccc1Nc1ccc(N)cc1	inconclusive: 39.8 µM [inhibitor, single point]
Cc1ccc(N=Nc2c(N)n(-c3ccccc3)[nH]c2=O)cc1	inconclusive: 28.2 µM [inhibitor, single point]
Oc1ccc(N2CCN(c3ncnc4sc(-c5ccccc5)cc34)CC2)cc1	inconclusive: 15.8 µM [inhibitor, partial curve]
O=C1c2ccccc2C(=O)c2c(O)c(O)cc(O)c21	inconclusive: 31.6 µM [inhibitor, single point]
COc1ccc(-n2cc(CNCCc3nc(C)cc(C)n3)c(-c3ccccc3Cl)n2)cc1	inconclusive: 5.01 µM [inhibitor, full curve, poor fit]
Cc1cccc(NC(=O)CSc2nnc(NC(=O)c3ccco3)s2)c1	inconclusive: 0.708 µM [inhibitor, full curve, poor fit]
CN1C(=O)COc2ccc(C(=O)c3oc4ccccc4c3-c3cnc4c(c3)COc3ccccc3-4)cc21	inconclusive: 3.55 µM [inhibitor, single point]
O=C(NCc1ccc(Cl)cc1)c1cccc(S(=O)(=O)N2CCCC2)c1	inactive
Cc1noc(/C=C/N(C)C)c1S(=O)(=O)N1CCCC(C(=O)NC2CCCCC2)C1 (stereo unspecified)	inconclusive: 0.794 µM [inhibitor, single point]
CC(C)(C)c1cc(/C=N/O)cc(C(C)(C)C)c1O	inactive
CC1=NN(c2ccc(C)cc2)C(=O)/C1=C\C=C\c1ccccc1	inconclusive: 28.2 µM [inhibitor, partial curve]
CCOC(=O)C1=C(O)/C(=C/c2cccc(OC)c2O)N=C1C	inconclusive: 35.5 µM [inhibitor, single point]
CC1CCCC(C)N1C(=O)C1CCCCC1 (stereo unspecified)	inactive
O=C(CCSCCC(=O)NCc1ccco1)NCc1ccco1	inconclusive: 39.8 µM [inhibitor, single point]
Cc1cc(-c2csc(NC(=O)c3cc4ccccc4o3)n2)c(C)n1C	inconclusive: 25.1 µM [inhibitor, partial curve]
O=C(Nn1cc(C(=O)Nc2ccccc2F)c2ccccc2c1=O)c1cnccn1	active: 39.8 µM
COc1ccc(NC(=S)N2c3ccccc3CC2C)cc1OC (stereo unspecified)	inconclusive: 0.1 µM [inhibitor, full curve, poor fit]
COc1cc(C2N(c3cc(C)on3)C(=O)C3CCCN32)cc(OC)c1OC (stereo unspecified)	inactive
Cc1ccccc1NC(=O)C1CCN(c2cnccn2)CC1	inconclusive: 4.47 µM [inhibitor, full curve]
COc1ccc(N=Nc2nc3cc(Br)c(Br)cc3n2C)c(OC)c1	inconclusive: 39.8 µM [inhibitor, single point]
O=C(CN1CCN(Cc2ccc(F)cc2Cl)C1=O)NCCCN1CCOCC1	inactive

Compound	Potency
S=C(NCc1ccco1)N1CCN(C(c2ccccc2)c2ccccc2)CC1	inconclusive: 39.8 µM [inhibitor, single point]
COc1ccc(/C=N\Nc2ccccc2[N+](=O)[O-])c(C(=O)O)c1OC	inconclusive: 28.2 µM [inhibitor, single point]
CC1=NN(c2ccccc2)C(=O)C1c1ccccc1 (stereo unspecified)	inactive
Cc1ccc(CSC2=NCCN2C(=O)c2ccc([N+](=O)[O-])cc2)cc1	inconclusive: 12.6 µM [inhibitor, partial curve]
CCc1cc2c(nc1CC)CCN(CC/C(C)=N/O[C@@H](C)c1cc(-c3c(C)cc(C)cc3C)no1)C2	inactive
Cc1onc(-c2ccccc2)c1C(=O)N/N=C/c1cn(C)c2ccccc12	inconclusive: 39.8 µM [inhibitor, partial curve]
CCOc1ccc(-n2c(C)nc3cc(C(=O)NCCN4CCOCC4)ccc32)cc1	inconclusive: 8.91 µM [inhibitor, single point]
CCOC(=O)CCCCC(=O)c1[nH]c(=O)[nH]c1CSc1nc(C)cc(=O)[nH]1	active: 7.94 µM
CSc1ccc(C(=S)N2CCCC2)cc1	inactive
CCC(C)(C)c1ccc(Oc2cccc(C(=O)O)c2)cc1	inactive
Cc1ccc(CN(C)C(=O)C2CCCN2C(=O)c2cccs2)o1 (stereo unspecified)	inactive
Cc1ccc(Cc2nnc(SCC(=O)Nc3c(C)cccc3C)[nH]c2=O)cc1	inconclusive: 0.794 µM [inhibitor, single point]
COc1ccc(Cl)cc1C(=O)Nc1ccc(NC(C)=O)cc1	inactive
FC(F)(F)c1cnc(C(c2ccccc2)c2ncn[nH]2)c(Cl)c1 (stereo unspecified)	inactive
Fc1ccc(-c2cnn3c(-c4cccs4)ccnc23)cc1	inconclusive: 0.355 µM [inhibitor, full curve, poor fit]
COc1ccc(/C=C2\CCCc3c2nc2ccccc2c3C(=O)O)cc1OC	inconclusive: 25.1 µM [inhibitor, single point]
C[C@H]1CN=C(N(C)C)N1CCC1CCCCC1	inconclusive: 31.6 µM [inhibitor, single point]
Cc1nc2ccc(NC(=S)N3CCN(c4ccccn4)CC3)cc2nc1C	inactive
O=C(CN1C(=O)/C(=C/c2ccccc2)SC1=S)NNC(=O)c1ccccc1O	inconclusive: 0.562 µM [inhibitor, full curve]
CCC(C)NC(=O)/C=C/c1ccc(S(=O)(=O)NCc2ccco2)cc1 (stereo unspecified)	inconclusive: 39.8 µM [inhibitor, single point]
CCCC(=O)NC(c1ccc(N(C)C)cc1)c1c(O)ccc2ccccc12 (stereo unspecified)	inconclusive: 39.8 µM [inhibitor, single point]
CCOC(=O)N1CCC(N(CCOC)C(=O)Nc2ccc(Cl)c(Cl)c2)CC1	inconclusive: 6.31 µM [inhibitor, single point]
COc1ccc2c(CC(=O)N3CCN(S(=O)(=O)c4ccc(F)cc4)CC3)coc2c1	inconclusive: 28.2 µM [inhibitor, single point]
